# From paper PMC12040169 (PLOS Biology, 2025)
# Some of the results follow.
# Tested on: T1, C. trachomatis L2/434/Bu expressing GFP (CTL2-GFP)
# T1 construct: L2/434/Bu GFP intracellular growth in HeLa cells
# Design: species or system HeLa; C. trachomatis total inclusion area by high-content imaging, normalised to DMSO
# Settings: total inclusion area; 28.5 h, 10 µM; inhibitor
# In short: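 High-content images of fixed, Hoechst-stained infected cultures supply inclusion area and count (growth) plus nuclei number (viability), complementing bulk GFP/resorufin fluorescence. MIC determination is unchanged from the primary assay.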
row,SMILES,% of control remaining
1,Cc1ccc(S(=O)(=O)N(CC(=O)Nc2ccccc2C)Cc2ccc(Cl)c(Cl)c2)cc1 [CBK264735],109.29
2,OCC[C@H]1CN2CCCC2CN1Cc1cccn1-c1ccccc1F (stereo partly drawn) [CBK282977],91.298
3,COc1ccccc1CN(Cc1cccnc1)C(=O)NC(C)C(C)C (stereo not drawn) [CBK307672],82.8128
4,COc1ccc(-c2nnc(SCc3cc(=O)oc4cc(C)ccc34)n2CC(C)C)cc1 [CBK297518],106.954
5,O=C(COc1ccccc1)Nc1nn(Cc2ccc(S(=O)(=O)N3CCCC3)cc2)c2ccccc12 [CBK061594],104.719
6,C=CCN1C(=O)C2(CC(=O)N(CCCN(C)S(C)(=O)=O)C2=O)c2cc(F)ccc21 (stereo not drawn) [CBK075319],99.7747
7,C[C@]12CN(C(=O)C3CCCC3)C[C@H]1NC(=O)c1ccccc1C2=O [CBK281672],90.25
8,CC1CCCN(C(=O)CC(NC(N)=O)c2cccc(Br)c2)CC1 (stereo not drawn) [CBK305804],62.5952
9,O=C(O)CCc1ccc(-c2cccs2)n1NC(=O)c1ccc(Cl)cc1 [CBK264738],103.148
10,O=C1CCCC2=C1C(c1ccccc1Cl)n1nnnc1N2 (stereo not drawn) [CBK288151],111.68
11,O=C(Nc1ccccc1)c1ccc2c(c1)C(=O)N(c1cccc(N3C(=O)c4ccc(C(=O)Nc5ccccc5)cc4C3=O)n1)C2=O [CBK261197],103.093
12,Fc1cccc(SCc2ccccc2)c1 [CBK002912],77.4647
13,COC(=O)c1cnn(-c2cc(Oc3ccccc3C)ncn2)c1N [CBK098668],75.8032
14,O=C(NCCN1CCC(O)(c2ccc(F)cc2)CC1)c1ccco1 [CBK283166],72.2841
15,NS(=O)(=O)c1ccc(C(=O)N2CCC3(CCN(C(=O)c4cc(F)c(F)cc4F)C3)C2)cc1 (stereo not drawn) [CBK131385],117.308
16,CC(C)(C)Cc1nnc(N)s1 [CBK050161],88.2929
17,C#CCNS(=O)(=O)c1cccc(C(=O)NC2CCN(CCOC)CC2)c1 [CBK305714],67.7832
18,N=C(N)NC1=NC(=O)C(CC(=O)Nc2ccc(Oc3ccccc3)cc2)S1 (stereo not drawn) [CBK300482],99.9932
19,Cc1cccn2c(CN3CC(O)C3)c(C(=O)N3CCOCC3)nc12 [CBK306857],94.7
20,CC(=O)c1ccc(C(=O)N(C)Cc2ccc(F)cc2)s1 [CBK296660],79.8466
21,Cc1noc(C)c1NC(=O)c1cnccc1C(F)(F)F [CBK200306],86.772
22,CS(=O)(=O)N1CCCc2cc(-c3csc(N4CCCC4)n3)ccc21 [CBK306093],133.35
23,CN(CC(=O)Nc1cccnc1N1CCNCC1)C(=O)c1ccccc1 [CBK028264T],103.423
24,Cc1cc(NC(=O)c2nn(-c3ncccn3)c3ccccc23)n(C)n1 [CBK048505],115.387
25,CCCS(=O)(=O)Nc1nccnc1N1CCN(c2ccc3c(c2)OCO3)CC1 [CBK048824],97.2501
26,COc1cc(C=O)ccc1OC(=O)c1nsc(Cl)c1Cl [CBK266619],116.125

row,SMILES,% of control remaining
1,CN(C)CCCNC(=O)c1cnc2cc(Cl)ccc2c1O [CBK107354],98.8708
2,CC(C)(C)OC(=O)NCCNCc1ccccc1C(F)(F)F [CBK056695],93.8478
3,CCN(CC)C(=O)CN1C(=O)[C@H]2CCCN2C(=O)c2ccccc21 [CBK286319],68.0021
4,O=C(COc1ccc(C(=O)c2ccc(F)cc2)cc1)c1ccc2c(c1)OCCO2 [CBK297536],102.409
5,CN1CCC(N2CCN(C(=O)NCC(c3ccccc3)c3ccccc3)CC2)CC1 [CBK156096],86.0797
6,COCOc1ccc(-c2nc(-c3cnc(OC)nc3OC)cnc2N)cc1 [CBK063991],92.8842
7,O=S(=O)(Nc1ccccc1OC(F)(F)F)c1ccc(N2CCNCC2)c2ccccc12 [CBK003933C],86.5432
8,Cc1ccc(C(=O)NCCN2CCOCC2)c(NCCCn2ccnc2)n1 [CBK076371],98.6956
9,O=C(NCc1nnc(-c2cccs2)o1)c1ccccc1-c1ccccc1 [CBK286293],92.0457
10,CCC(Oc1ccc(C)cc1)C(=O)Nc1ccccc1C(=O)N1CCOCC1 (stereo not drawn) [CBK270132],129.343
11,CCC(=O)N1CCC(NC(=O)c2cnc(-c3ccncc3)s2)C1 (stereo not drawn) [CBK305550],69.6587
12,O=C(O)C(Cc1ccccc1)n1cnnn1 (stereo not drawn) [CBK021162],89.2948
13,OCc1cc(Cl)c(Cl)c(CO)c1O [CBK269397],102.688
14,COc1ccc(CN2CCCN(C(=O)c3ccc(C#N)cc3)CC2)cc1 [CBK305273],44.7363
15,COc1ccccc1-c1cnc(N)c(N[C@@H](CO)C(C)C)n1 [CBK063749],125.442
16,Cc1ccc2nc(N3CCCC(O)C3)c(CN3CCC(F)CC3)cc2c1 (stereo not drawn) [CBK307016],80.5715
17,CN(C)CCC(c1ccccc1)n1cncc1-c1cnn(C)c1 (stereo not drawn) [CBK281742],109.118
18,c1ccc(Oc2ccc(Nc3cccc(-c4ccc5ccccc5c4)n3)cc2)cc1 [CBK037636],89.1916
19,COc1ccc(/N=c2/cc(C)[nH]c3ncnn23)cc1 [CBK287893],94.9659
20,CN(C)S(=O)(=O)c1ccc(Cl)c(C(=O)Nc2ccc(C(=O)O)cc2)c1 [CBK265728],125.887
21,COc1ccc(-c2noc([C@@H]3C[C@H](NS(=O)(=O)Cc4ccccc4)CN3C)n2)cc1 [CBK288863],117.139
22,CN(CCN1CCCCC1)C(=O)c1c2c(nn1C)CCCC2 [CBK281905],95.8197
23,COc1cccc(C(=O)Nc2cc(C)c3c(=O)oc4ccccc4c3n2)c1OC [CBK287437],119.133
24,CC(=O)Nc1cccc(-c2cncc(-c3ccc(O)cc3)n2)c1 [CBK123795],77.3545
25,CCn1cncc1C(=O)NCC1(c2ccccc2F)CCOCC1 [CBK281555],95.4563
